Results as given in the BET-seq Pho4 binding data (Le et al. 2018).
This is one part of the list. These are noisy estimates, calculated here from bound and input reads.

The sequences below were run against T1, Pho4 (S. cerevisiae) (UniProt P07270) (assay: relative binding free energy (BET-seq); higher = weaker binding). Conditions: reference: library average.
T1 sequence: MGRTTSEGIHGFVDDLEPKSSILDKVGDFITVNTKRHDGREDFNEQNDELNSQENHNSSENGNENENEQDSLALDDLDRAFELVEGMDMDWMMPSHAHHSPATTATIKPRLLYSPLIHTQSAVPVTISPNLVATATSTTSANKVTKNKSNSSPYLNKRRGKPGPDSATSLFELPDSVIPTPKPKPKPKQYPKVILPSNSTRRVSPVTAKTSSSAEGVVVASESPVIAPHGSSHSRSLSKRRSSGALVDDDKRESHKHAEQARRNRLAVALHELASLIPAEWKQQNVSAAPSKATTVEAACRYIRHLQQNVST
TATGGCACGTGTTGGG was tested, and the “relative binding free energy” value was -0.01 kcal/mol. For AGGAGCACGTGGTAAG, the “relative binding free energy” value was -0.21 kcal/mol. GCGTTCACGTGTTGTT was tested, and the “relative binding free energy” value was 0.41 kcal/mol. With TTTTACACGTGAGTAC the “relative binding free energy” value was 0.31 kcal/mol. For CTATGCACGTGGGGCT, the “relative binding free energy” value was -0.14 kcal/mol. With ATGTACACGTGGGTGC the “relative binding free energy” value was -0.11 kcal/mol. For TGTATCACGTGACTGT, the “relative binding free energy” value was 0.24 kcal/mol. For AGTATCACGTGGCGTA, the “relative binding free energy” value was -0.1 kcal/mol. TTATTCACGTGTTATA was tested, and the “relative binding free energy” value was 0.09 kcal/mol. With GTTTACACGTGGATGC the “relative binding free energy” value was 0.21 kcal/mol. In the case of CCGGACACGTGGTGGG, the “relative binding free energy” value is reported as 0.01 kcal/mol. In the case of ATTCTCACGTGGGGCT, the “relative binding free energy” value is reported as 0.06 kcal/mol. With ATAGTCACGTGACTGT the “relative binding free energy” value was 0.15 kcal/mol. For TTTGGCACGTGAGAAG, the “relative binding free energy” value was 0.16 kcal/mol. For GTATTCACGTGCAGGG, the “relative binding free energy” value was 0.32 kcal/mol. For GTGTTCACGTGTCCTT, the “relative binding free energy” value was 0.24 kcal/mol. In the case of CGGGCCACGTGAAAGG, the “relative binding free energy” value is reported as 0.24 kcal/mol. For GAGGGCACGTGAAGTG, the “relative binding free energy” value was 0.2 kcal/mol. In the case of GAGAGCACGTGCTTTG, the “relative binding free energy” value is reported as -0.02 kcal/mol. In the case of GGGCTCACGTGTTTGA, the “relative binding free energy” value is reported as 0.31 kcal/mol. With ATTTACACGTGGTACG the “relative binding free energy” value was 0.12 kcal/mol. For TATCTCACGTGGAAGG, the “relative binding free energy” value was 0.28 kcal/mol. In the case of GGTTTCACGTGCGCTT, the “relative binding free energy” value is reported as 0.34 kcal/mol. GTAGGCACGTGAATAG was tested, and the “relative binding free energy” value was 0.13 kcal/mol. In the case of CTTATCACGTGTTTAT, the “relative binding free energy” value is reported as 0.04 kcal/mol. In the case of AGGTGCACGTGTGATG, the “relative binding free energy” value is reported as 0.02 kcal/mol. For AGAGTCACGTGATGAG, the “relative binding free energy” value was 0.25 kcal/mol. TCTGTCACGTGATTTA was tested, and the “relative binding free energy” value was 0.19 kcal/mol. In the case of TGTGTCACGTGCGTAT, the “relative binding free energy” value is reported as 0.01 kcal/mol. With CCTTGCACGTGTGTTT the “relative binding free energy” value was -0.09 kcal/mol. TATAACACGTGAAAGG was tested, and the “relative binding free energy” value was 0.37 kcal/mol. In the case of AGGTACACGTGTATCG, the “relative binding free energy” value is reported as 0.02 kcal/mol. CGGATCACGTGGGTAT was tested, and the “relative binding free energy” value was -0.1 kcal/mol. GTGTACACGTGGTTGT was tested, and the “relative binding free energy” value was 0.06 kcal/mol. TTTTTCACGTGGCATA was tested, and the “relative binding free energy” value was 0.14 kcal/mol. In the case of TTTAACACGTGATGTG, the “relative binding free energy” value is reported as 0.06 kcal/mol. For TGGGCCACGTGTGATG, the “relative binding free energy” value was 0.06 kcal/mol. For TTTATCACGTGTCTAG, the “relative binding free energy” value was 0.1 kcal/mol. GTGAACACGTGGTGCG was tested, and the “relative binding free energy” value was 0.05 kcal/mol. GTGTACACGTGAAAGT was tested, and the “relative binding free energy” value was 0.26 kcal/mol. With TTGGACACGTGTGTGC the “relative binding free energy” value was 0.1 kcal/mol. With TATATCACGTGAAGAG the “relative binding free energy” value was 0.35 kcal/mol. In the case of TGGCCCACGTGGGGGG, the “relative binding free energy” value is reported as -0.3 kcal/mol. With GGAGTCACGTGAGATA the “relative binding free energy” value was 0.32 kcal/mol. With TGGCCCACGTGTGTGG the “relative binding free energy” value was -0.21 kcal/mol. For TGAGGCACGTGCGATA, the “relative binding free energy” value was -0.09 kcal/mol. GGGGGCACGTGCGAAG was tested, and the “relative binding free energy” value was -0.09 kcal/mol. With GTGGTCACGTGCTGCA the “relative binding free energy” value was 0.1 kcal/mol. With CTTTTCACGTGGTAGT the “relative binding free energy” value was 0.21 kcal/mol. With CGCTGCACGTGTTGGG the “relative binding free energy” value was 0.06 kcal/mol. With TTCAGCACGTGATAAT the “relative binding free energy” value was 0.18 kcal/mol. With TGGGTCACGTGGGCGG the “relative binding free energy” value was 0.01 kcal/mol. AAATTCACGTGTATGA was tested, and the “relative binding free energy” value was 0.25 kcal/mol. In the case of TGCGACACGTGAGGGC, the “relative binding free energy” value is reported as 0.3 kcal/mol. For ATGATCACGTGAGGAT, the “relative binding free energy” value was 0.3 kcal/mol. For TCTATCACGTGAGTGT, the “relative binding free energy” value was 0.37 kcal/mol. ACTGACACGTGATTGT was tested, and the “relative binding free energy” value was 0.26 kcal/mol. For TTAAACACGTGAGTGT, the “relative binding free energy” value was 0.26 kcal/mol. With AGTGACACGTGAGAGA the “relative binding free energy” value was 0.26 kcal/mol. AAATTCACGTGGCTGT was tested, and the “relative binding free energy” value was 0.18 kcal/mol. With TTATTCACGTGATAAT the “relative binding free energy” value was 0.18 kcal/mol. In the case of AGGGGCACGTGTTAGC, the “relative binding free energy” value is reported as -0.08 kcal/mol. TGTAGCACGTGTCGTT was tested, and the “relative binding free energy” value was -0.11 kcal/mol. With TGCAGCACGTGGGCGA the “relative binding free energy” value was -0.25 kcal/mol. With ATTGGCACGTGGGTAT the “relative binding free energy” value was -0.22 kcal/mol. With TAAAGCACGTGGGTAT the “relative binding free energy” value was -0.18 kcal/mol. For TGGTTCACGTGTGGCG, the “relative binding free energy” value was 0.26 kcal/mol. For TTTAACACGTGATAGA, the “relative binding free energy” value was 0.09 kcal/mol. TGGGCCACGTGAAGTG was tested, and the “relative binding free energy” value was 0.19 kcal/mol. For TTGGTCACGTGGTGAA, the “relative binding free energy” value was 0.04 kcal/mol. For ATAATCACGTGATGGC, the “relative binding free energy” value was 0.2 kcal/mol. GGCCACACGTGGTGAG was tested, and the “relative binding free energy” value was 0.16 kcal/mol. With GATGTCACGTGGGGTC the “relative binding free energy” value was 0.1 kcal/mol. CTGGGCACGTGAGGTA was tested, and the “relative binding free energy” value was 0.18 kcal/mol. With CAGAGCACGTGGTTAT the “relative binding free energy” value was -0.12 kcal/mol. With GTGTTCACGTGAGTCT the “relative binding free energy” value was 0.43 kcal/mol. With CGGGGCACGTGGTTGT the “relative binding free energy” value was -0.22 kcal/mol. In the case of TGTGACACGTGTGGGC, the “relative binding free energy” value is reported as 0.07 kcal/mol. For TAGGGCACGTGATGTC, the “relative binding free energy” value was 0.06 kcal/mol. TGGTTCACGTGTTGTA was tested, and the “relative binding free energy” value was 0.27 kcal/mol. For TGTGGCACGTGTAGAT, the “relative binding free energy” value was 0.14 kcal/mol. For GGTGACACGTGTGAAG, the “relative binding free energy” value was 0.17 kcal/mol. For AGCGACACGTGGTGTG, the “relative binding free energy” value was -0.06 kcal/mol. TGTGCCACGTGTTGAG was tested, and the “relative binding free energy” value was -0.08 kcal/mol. With CGGGGCACGTGAGCGG the “relative binding free energy” value was 0.02 kcal/mol. GTATGCACGTGCGTTG was tested, and the “relative binding free energy” value was -0.04 kcal/mol. For CAATTCACGTGGTTTG, the “relative binding free energy” value was 0.18 kcal/mol. With TTACGCACGTGGATGT the “relative binding free energy” value was -0.05 kcal/mol. For TTAGTCACGTGAAGCA, the “relative binding free energy” value was 0.39 kcal/mol. With TGAGCCACGTGGGGTG the “relative binding free energy” value was -0.27 kcal/mol. GGCAACACGTGGATGT was tested, and the “relative binding free energy” value was 0.12 kcal/mol. With ATTGGCACGTGAATTG the “relative binding free energy” value was 0.21 kcal/mol. For TGGTACACGTGTAGTC, the “relative binding free energy” value was 0.07 kcal/mol. For TATAGCACGTGTCTGG, the “relative binding free energy” value was -0.1 kcal/mol. For GGTGCCACGTGACGGG, the “relative binding free energy” value was -0.06 kcal/mol. GGAGTCACGTGATGGA was tested, and the “relative binding free energy” value was 0.29 kcal/mol. With TTGGGCACGTGAAAAG the “relative binding free energy” value was 0.16 kcal/mol. For ACTGTCACGTGGGTAG, the “relative binding free energy” value was -0.02 kcal/mol. With ATTGGCACGTGGAGCA the “relative binding free energy” value was -0.08 kcal/mol. TCTTGCACGTGGGCTT was tested, and the “relative binding free energy” value was -0.19 kcal/mol. For CAAATCACGTGGTGGC, the “relative binding free energy” value was 0.36 kcal/mol. TGCTGCACGTGTGAGG was tested, and the “relative binding free energy” value was 0.05 kcal/mol. With GTTGACACGTGGTACT the “relative binding free energy” value was -0.07 kcal/mol. In the case of ATAGACACGTGGGTAG, the “relative binding free energy” value is reported as -0.12 kcal/mol. With GGTTCCACGTGATGGA the “relative binding free energy” value was 0.25 kcal/mol. In the case of TTGCGCACGTGAGTAG, the “relative binding free energy” value is reported as 0.15 kcal/mol. AAGAACACGTGGGTGA was tested, and the “relative binding free energy” value was -0.02 kcal/mol. In the case of GGTAGCACGTGCTGGC, the “relative binding free energy” value is reported as -0.07 kcal/mol. CGGCACACGTGGTTTT was tested, and the “relative binding free energy” value was 0.12 kcal/mol. In the case of TGGAACACGTGTCGGT, the “relative binding free energy” value is reported as 0.21 kcal/mol. For TGACTCACGTGTTTTT, the “relative binding free energy” value was 0.18 kcal/mol. GTACTCACGTGTGCGG was tested, and the “relative binding free energy” value was 0.26 kcal/mol. With TTGGGCACGTGGGAGC the “relative binding free energy” value was -0.22 kcal/mol. With ATTAGCACGTGGGCAT the “relative binding free energy” value was -0.26 kcal/mol. With CGTGGCACGTGTTATT the “relative binding free energy” value was -0.01 kcal/mol.
